Experimental data reported in PubChem BioAssay AID686978 (National Center for Advancing Translational Sciences (NCATS), 2013).
In all, about 420,000 compounds went through this assay and about 64,000 (15%) were called active. This list was built around the results that the source calls inconclusive (neither active nor inactive); the mix of calls is not that of the screen. The call rests on the fitted dose curve; in most records, active means well fitted inhibition curve with a large enough effect; inconclusive means small, poorly fitted or top-dose-only effect; inactive means flat fitted curve, though single readings scatter. Potencies of inconclusive entries are left out as doubtful fits.

assay: qHTS for Inhibitors of human tyrosyl-DNA phosphodiesterase 1 (TDP1): qHTS in cells in absence of CPT; details: DT40 Tdp1-/- hTDP1 cells, no CPT, ATP luminescence, 48 h; activity change, negative = growth inhibition: at 46.2 µM (top of the series) unless noted; further: nearly all actives have a fitted effect of over 55% in size
Procedure, shortened: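 Cells were dispensed at 400 per well, compounds added by pin tool, plates incubated ≥48 hr at 37 °C, then CellTiter-Glo added for 30 min at room temperature before luminescence reading. Line: DT40 Tdp1-/- complemented with hTDP1; camptothecin omitted.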
On the % scale 0 is the no-effect control and ±100 the full control effect; potency means the concentration at half of the fitted maximal effect; tags describe the fitted curve by direction and shape.

| Compound | Potency | activity change, negative = growth inhibition |
| --- | --- | --- |
| C#CCOCCOCCOCCNc1nc(N2CCN(C(=O)C(Cc3cc4ccccc4[nH]3)n3cc(C(N)C(C)CC)nn3)CC2)nc(N2CCN(C(=O)C(Cc3cc4ccccc4[nH]3)n3cc(C(N)C(C)CC)nn3)CC2)n1 (stereo not drawn) | inconclusive [inhibitor, single point] |  |
| CCc1c(C)c(C#N)c2nc3ccccc3n2c1NCc1ccco1 | inconclusive [inhibitor, single point] |  |
| CC(=O)Nc1ccc(CNc2nc3cc(-c4cccc(C(F)(F)F)c4)sc3c(=O)n2C)cc1 | active: 20.6 µM |  |
| Cn1c(=O)c2c(nc(CN3CCN(Cc4ccccc4)CC3)n2Cc2ccc(F)cc2)n(C)c1=O | inconclusive [inhibitor, single point] |  |
| CC(NC(=O)/C(C#N)=C1\N=C(NC(=O)c2ccco2)c2ccccc21)c1ccccc1 (stereo not drawn) |  | inactive: -21.8% |
| O=C(CNC(=O)c1ccncc1)N/N=C/c1ccccc1[N+](=O)[O-] |  | inactive: 7.8% |
| C/C(=N\NC(=O)CCc1ccc(S(=O)(=O)N2CCOCC2)cc1)c1ccc(Br)cc1 |  | inactive: 3.85% |
| O=C(COC(=O)COc1ccccc1)Nc1ncc([N+](=O)[O-])s1 | inconclusive [inhibitor, single point] |  |
| COc1ccccc1Nc1nnc(SCc2cc(=O)n3cc(C)ccc3n2)s1 | inconclusive [inhibitor, partial curve, poor fit] |  |
| Cc1cccc2c1CC(C)(C)N=C2C1=C(O)CCCC1=O |  | inconclusive: -33% [inhibitor] |
| CCOC(=O)c1c(C)[nH]c(C(=O)OC(C(=O)N(C)C)c2ccccc2)c1C (stereo not drawn) | active: 10 µM |  |
| COCCN(C(=O)CCC(=O)Nc1cc(C)on1)C(C(=O)NC1CCCC1)c1ccc(C(C)C)cc1 (stereo not drawn) |  | inconclusive: -30.1% [inhibitor] |
| CCc1nn2cc(C(=O)c3cc(Cl)ccc3O)cnc2c1-c1ccc(F)cc1 | inconclusive [inhibitor, single point] |  |
| Cc1ccccc1CSCC(=O)c1c(N)n(CC(C)C)c(=O)n(C)c1=O | active: 23.1 µM |  |
| CCc1ccccc1N(CC(=O)N1CCN(c2ccccc2F)CC1)S(C)(=O)=O | inconclusive [inhibitor, single point] |  |
| CCCNC(=S)N1CCC(C(=O)c2ccc3c(c2)OCCO3)CC1 | inconclusive [inhibitor, single point] |  |
| Cc1ccc(S(=O)(=O)Cn2nnnc2C(c2ccc(F)cc2)N2CCCCC2)cc1 (stereo not drawn) | active: 23.1 µM |  |
| COc1ccc(N(C(=O)c2cc3ccccc3oc2=O)C2C=CS(=O)(=O)C2)cc1 (stereo not drawn) |  | inactive: 1.4% |
